From the RNAGym collection of RNA variant scans (doi:10.1073/pnas.2313332121)
Variants at the floor of the assay are shown more often than the library holds them.

B1: TPR 5TU (parent)
chain: GGAUCUUCUCGAUCUAACAAAAAAGACAAAUCUGCCACAAAGCUUGAGAGCAUCUUCGGAUGCAGAGGCGGCAGCCUUCGGUGGCGCGAUAGCGCCAACGUUCUCAACUAUGACACGCAAAACGCGUGCUCCGUUGAAUGGAGUUUAUCAUG

Variants of: B1
Assay: polymerase ribozyme fitness, log enrichment relative to wild type (log ratio); higher = more active; in vitro selection for triplet polymerase activity
Outline: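 Frozen incubation at −7 °C formed the core of a single, triplicate in vitro selection round applied to PCR-built, transcribed mutant libraries of each subunit of a heterodimeric triplet polymerase ribozyme. Extended constructs were gel-excised, captured with streptavidin beads and amplified by RT-PCR, and input and output libraries were Illumina-sequenced with a filter of ≥10 input reads and ≥1 read per output. Fitness is the logarithm of genotype enrichment relative to wild-type enrichment, with inverse-variance-weighted replicate averaging, and the logarithm is base 2.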

Point of comparison: GGAUCUUCUCGAUCUAACAAAAAAGACAAAUCUGCCAAAAAGCUUGAGAGCAUCUUCGGAUGCAGAGGCGGCAGCCUUCGGUGGCGCGAUAGCGACAACGUUCUCAACUAUGACACGCAAAACGCGUGCUCCGUAGAAUGGAGUUUAUCAUG [C38A C95A U135A], “polymerase ribozyme fitness (log ratio)” value -1.76. Against it:
- GGAUCUUCUCGAUCUAACAAAAAAGACAAAUCUGCCAAAAAGCUUGAGAGCAUCUUCGGAUGCAGAGGCGGCAGCCAUCGGUGGCGCGAUAGCGCCAACGUUCUCAACUAUGACACGCAAAAAGCGUGCUCCGUUGAAUGGAGUUUAUCAUG [C38A U77A C123A] — lower, ≤ -4.2
- GGAUCUUCUCGAUCUAACAAAAAAGACAAAUCUGCCAAAAAGCUUGAGAGCAUCUUCGGAUGCAGAGGCGGCAGCCUUCGGUUGCGCGAUAGCGCGAACGUUCUCAACUAUGACACGCAAAACGCGUGCUCCGUUGAAUGGAGAUUAUCAUG [C38A G83U C96G U144A] — higher, -0.619
- GGAUCUUCUCGAUCUAACAAAAAAGACAAAUCUGCCAGAAAGCUUGAGAGCAUCUUCGGAUGCAGAGGCGGCUGCCUUCGGUGGCGGGAUAGCGCCAACGUUCUCAACUAUGACACGCAAAACUCGUGCUCCGUUGAAUGGAGUUUAACAUG [C38G A73U C87G G124U U148A] — lower, ≤ -4.2
- GGAUCUUCUCGAUCUAACAAAAAAGACAAAUCUGCCAAAAAGCUUGAGAGCAUCAUCGGAUGCAGAGGCGGCAGCCUUCGGUGGCGCGAUAGGGCCAACGUUCUCAACUAUGACACGCAAAACGCGUGCUCCGUUGAAUGGAGUUUAUUAUG [C38A U55A C93G C149U] — lower, ≤ -4.2
- GGAUCUUCUCGAUCUAACAAAAAAGACAAAUCUGCCAGAAAGCUUGAGAGCAUCUUCGGAUGCAGGGGCGGCAGCCGUCGGUUGCGCGAUAGCGCCAACGUUCUCAUCUAUGACACGCAAAACGCGUCCUCCGUUGUAUGGAGUUUAUCAUG [C38G A66G U77G G83U A107U G128C A137U] — lower, ≤ -4.2
- GGAUCUUCUCGAUCUAACAAAAAAGACAAAUCUGCCAGAAAGCUUGAGAGUAUCUUCGGAUGCAGAGGCGGCAGCCUUCGGUGGCGCGAUAGCGCCAACGUUCUCAACUAUGACACGCAAAACGCGUGCUCCGUUGAAUGGAGUUUAUCAUG [C38G C51U] — higher, -0.547
- GGAUCUUCUCGAUCUAACAAAAAAGACAAAUCUGCCAAAAACCUUGAGAGCAUCUUCGUAUGCCGAGGCGGCAGCCUUCGGUGGUGCGAUAGCGCCAACGUUCUCUACUAUGACACGCAAAACGGGUGCUCCGUUGAAUGGAGUUUAUCAUG [C38A G42C G59U A64C C85U A106U C125G] — lower, ≤ -4.2
- GGAUCUUCUCGAUCUAACAAAAAAGACAAAUCUGCCAGAAAGCUUGAGAGCAUCUUCGGAUGCAGAGGCGGCAGCCUUCGGUGGAGCGAUAGCUCCAACGUUGUCAACUAUGACACGCAAAACGCGUGCUCCGUUGAAUGGAGUUUAUCAUG [C38G C85A G94U C103G] — lower, -2.31
- GGAUCUUCUCGAUCUAACAAAAAAGACAAAUCUGCCAAAAAGCUUGAGAGCAUCUUCUGAUGCAGAGGCGGCAGCCCACGGUGGCGCGAUAGCGCAAACGUUCUCAACUAUGACACGCAAAACGCGUGCUCCGUUGAAUGGAGUUUAUCAUG [C38A G58U U77C U78A C96A] — lower, ≤ -4.2
- GGAUCUUCUCGAUCUAACAAAAAAGACAAAUCUGCCAAAAAGCUUGAGAGCAUCUUCGGAUGCAGAGGCGGCAGCCUUCGGUGGCGCGAUAGCGCCAACGUUCUGAACUAUGACACGAAAAACGCGUGAUCCGUUGAAUGGAGUUUAUCAUG [C38A C105G C118A C129A] — lower, ≤ -4.2
- GGAUCUUCUCGAUCUAACAAAAAAGACAAAUCUGCCAGACAGCUUGAGAGCAUCUUCGGCUGCAGAGGCGGCAGCCUUCGGUGGCUCGAUAGCGCCAACUUUCUCAACUAAGACACGCAAAACGCGUGCUCCGUUUAAUGGAGUUUAUCAUG [C38G A40C A60C G86U G100U U111A G136U] — lower, ≤ -4.2
- GGAUCUUCUCGAUCUAACAAAAAAGACAAAUCUGCCAAAAAGCUUGAGAGCAUCUACGGAUGCAGAGGUGGCAGCCUUCGGUGGCGCGAUAUCGCCCAGGUUCUCAACUAUGACACGCAAAACGCGUGCUCCGUUGAAUGGAGUUUAUCAUG [C38A U56A C69U G92U A97C C99G] — lower, ≤ -4.2
- GGAUCUUCUCGAUCUAACAAAAAAGACAAAUCUGCCAAAAAGCUUGAGAGCAUCUUCGGAUGCAGAGGCAGCAGCCUUCGGUGGCGCGAUAGCGCCAAGGUUCUCAACUAUGACACGCAAAACGCGUGCUCCGUUGAAUGGAGCUUAUCAUG [C38A G70A C99G U144C] — lower, ≤ -4.2
- GGAUCUUCUCGAUCUAACAAAAAAGACAAAUCUGCCAAAAAGCUUAAGAGCAUCUUCGGAUGCAGAGGCGGCAGCCUUCGGUGGCGCGAUACAGCUAACGUUCUCAACUAUGACACGCAAAACGCCUGCACCGUUGAAUGGAGUUUAUCAUG [C38A G46A G92C C93A C96U G126C U130A] — lower, ≤ -4.2
- GGAUCUUCUCGAUCUAACAAAAAAGACAAAUCUGCCAAAAAGCUUGAGAGCAUCUUCGAAUGCAGAGGCGGCAGCCUUCGGUGGCACGAUAGCGCCAAGGUUCUCAACUAUGACACGCAAAACGCGUGCUCCGUUGAAUGGAGUUUAUCAUG [C38A G59A G86A C99G] — lower, ≤ -4.2
- GGAUCUUCUCGAUCUAACAAAAAAGACAAAUCUGCCAAAAAGCUUGAGAGCAUCUUCAGGUGCAGAGGCGGCAGCCUUCGGUGGCGCGAUAGUGACAACGUUCUCAACUAUGACACGCAAAACGGGUGCUCCGUUGAAUGGAGUUUAUCAUG [C38A G58A A60G C93U C95A C125G] — lower, -3.67
- GGAUCUUCUCGAUCUAACAAAAAAGACAAAUCUGCCAAAAAGCUUGAGAGCAUCUUCGGAUGCAGAGGCGGCAGCCUUCGGUGGCGCGAUAGCGCCAACGUUCUCAACAAUGAUAGGCAAAACGCGUGCUCCGUUGAAUGGAGUUUAUCAUG [C38A U109A C114U C116G] — lower, ≤ -4.2
- GGAUCUUCUCGAUCUAACAAAAAAGACAAAUCUGCCAGAAAGCUUGCGAGCAUCUUCGGAUGCAGAGGCGGCAGCCUUCGGUGGCGCAAUAGCGCCAACGUUCUUAACUAUGACACGCAAAUCGCGUGCUCCGUUAAAUGGAGUUUAUCAUG [C38G A47C G88A C105U A122U G136A] — lower, ≤ -4.2
